{"source": "paper PMC6919601", "about": "“Identification of Plasmodium dipeptidyl aminopeptidase allosteric inhibitors by high throughput screening” (PLoS ONE, 2019)", "note": "“And” between values parts separate entries of the source, which are not always exact repeats. Equal entries are not always repeated. Out of some 110,000 compounds screened, about 230 (0.21%) showed an effect of 50% or more. This is one part of the list.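 Further: 30 min substrate incubation versus DMSO and 10 µM JCP410 controls.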"}
{"molecular_target": "DPAP1 (Plasmodium falciparum, UniProt Q8IIJ9)", "sequence (Q8IIJ9 whole entry, looked up)": "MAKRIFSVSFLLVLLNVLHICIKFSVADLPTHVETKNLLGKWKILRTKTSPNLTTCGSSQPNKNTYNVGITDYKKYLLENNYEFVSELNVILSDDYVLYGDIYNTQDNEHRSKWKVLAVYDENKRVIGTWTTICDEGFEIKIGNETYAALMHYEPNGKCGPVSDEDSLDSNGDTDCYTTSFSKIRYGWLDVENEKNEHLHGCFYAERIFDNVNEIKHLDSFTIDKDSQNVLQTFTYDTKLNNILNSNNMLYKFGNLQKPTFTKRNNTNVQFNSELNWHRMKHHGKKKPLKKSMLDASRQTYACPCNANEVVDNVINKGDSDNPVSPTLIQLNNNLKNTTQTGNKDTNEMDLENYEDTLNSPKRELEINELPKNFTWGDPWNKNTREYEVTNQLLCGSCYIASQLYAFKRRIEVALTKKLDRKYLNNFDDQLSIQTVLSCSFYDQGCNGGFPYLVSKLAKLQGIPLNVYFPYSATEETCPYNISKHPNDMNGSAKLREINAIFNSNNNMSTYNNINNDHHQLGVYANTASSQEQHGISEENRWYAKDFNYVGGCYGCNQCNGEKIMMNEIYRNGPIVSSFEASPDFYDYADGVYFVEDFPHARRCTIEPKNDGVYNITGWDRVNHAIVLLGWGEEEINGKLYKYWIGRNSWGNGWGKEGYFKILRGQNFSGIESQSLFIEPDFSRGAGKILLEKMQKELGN", "experiment": "primary screen, percent inhibition; read by cleavage of a fluorogenic dipeptide substrate; higher = more effect of the substance", "parameters": "species or system P. falciparum D10 trophozoite lysates; single well"}
{"compound": "O=S(=O)(c1ccccc1)c1cnc2ccccc2c1N1CCCCC1", "% Inhibition @ 10 uM": "-0.246%"}
{"compound": "COC(=O)c1cccc2c1-c1ccccc1C2=O", "% Inhibition @ 10 uM": "2.7%"}
{"compound": "Nc1cccc(NC(=O)c2ccccc2Br)c1", "% Inhibition @ 10 uM": "3.24%"}
{"compound": "CC1(C)CC(=O)C2=C(C1)N(c1ccc(Cl)cc1)C1=C(C2)C(=O)CC(C)(C)C1", "% Inhibition @ 10 uM": "-3.93%"}
{"compound": "COc1ccc(N(CC(=O)Nc2ccccc2Cl)S(=O)(=O)c2ccc(C)cc2)cc1", "% Inhibition @ 10 uM": "-1.95%"}
{"compound": "COc1ccc(C)cc1NC1CCC(c2ccccc2)CC1", "note": "(stereo not drawn)", "% Inhibition @ 10 uM": "7.8%"}
{"compound": "O=C(COc1ccc2ccccc2c1Br)NC1CCCCC1", "% Inhibition @ 10 uM": "4.83%"}
{"compound": "Cc1ccc(-c2csc(NC(=O)C3C4C=CC(O4)C3C(=O)O)n2)cc1", "note": "(stereo not drawn)", "% Inhibition @ 10 uM": "3.04%"}
{"compound": "COc1ccc(-c2nnc(S)n2-c2ccccc2C)cc1OC", "% Inhibition @ 10 uM": "18.2%"}
{"compound": "CCn1c(C(=O)N2CCC(C(=O)NCCc3ccc(S(N)(=O)=O)cc3)CC2)cc2sccc21", "% Inhibition @ 10 uM": "-3.35%"}
{"compound": "C=C(C)CSc1nc2c(c(=O)n(C)c(=O)n2C)n1CC(=C)C", "% Inhibition @ 10 uM": "-0.864%"}
{"compound": "Cc1nc2c(c(-c3ccccc3)c1C#N)C(=O)CC(C)(C)C2", "% Inhibition @ 10 uM": "2.86%"}
{"compound": "CCOC(=O)C1=C(c2ccccc2)N=c2s/c(=C\\c3ccco3)c(=O)n2C1c1cccs1", "note": "(stereo not drawn)", "% Inhibition @ 10 uM": "-3.98%"}
{"compound": "COc1ccc(-c2cc(C)no2)cc1S(=O)(=O)N1CCN(CCn2c(C)ccc2C)CC1", "% Inhibition @ 10 uM": "-3.79%"}
{"compound": "N=C1/C(=C/c2coc3ccccc3c2=O)C(=O)N=C2SC=C(c3ccc(F)cc3)N12", "% Inhibition @ 10 uM": "1.15%"}
{"compound": "COc1ccc(CC(=O)N2CCC3(CC2)N=C(c2ccc(C)cc2)C(=O)N3)cc1OC", "% Inhibition @ 10 uM": "-3.47%"}
{"compound": "Cc1ccc2nsnc2c1S(=O)(=O)NCCc1c(C)[nH]c2ccccc12", "% Inhibition @ 10 uM": "-0.671%"}
{"compound": "Cc1nnc(NC(=O)CSc2nc(-c3ccccc3C)ns2)s1", "% Inhibition @ 10 uM": "-0.959%"}
{"compound": "CC(=O)N1CCc2c(sc3c2c(=O)n(Cc2ccccc2)c(=O)n3Cc2ccccc2C)C1", "% Inhibition @ 10 uM": "-1.66%"}
{"compound": "CCc1ccc(CNCCc2ccccc2OC)cc1", "% Inhibition @ 10 uM": "9.1%"}
{"compound": "Cc1nc2nc(C)c(CCC(=O)NCCCc3ccccc3)c(C)n2n1", "% Inhibition @ 10 uM": "-0.465%"}
{"compound": "O=C(CCNS(=O)(=O)c1ccc2nc(O)ccc2c1)NCCc1ccc(Cl)cc1", "% Inhibition @ 10 uM": "-6.2%"}
{"compound": "COc1cc(C(=O)Nc2cc(C)cc(C)c2)ccc1OC(F)F", "% Inhibition @ 10 uM": "-5.81%"}
{"compound": "O=[N+]([O-])c1ccc(S(=O)(=O)Nc2ccccc2-c2ccccc2)cc1", "% Inhibition @ 10 uM": "-2.77%"}
{"compound": "CCOC(=O)c1c(C)n(C)c2ccc(OCC(O)Cn3nc(C)c(Br)c3C)cc12", "note": "(stereo not drawn)", "% Inhibition @ 10 uM": "-3.13%"}
{"compound": "Cc1ccsc1C(=O)N1CCN(c2ccccn2)CC1", "% Inhibition @ 10 uM": "-10.2%"}
{"compound": "Fc1ccc2c(c1)C=Cc1ccccc1S2", "% Inhibition @ 10 uM": "-2.07%"}
{"compound": "CC(=O)n1cc(-c2ccncc2)c2ccccc21", "% Inhibition @ 10 uM": "-5.48%"}
{"compound": "CC(=O)OC1(C#CCN2CCOCC2)CCCCC1", "% Inhibition @ 10 uM": "3.01%"}
{"compound": "CCCNc1nc(-c2ccc(C)cc2)cs1", "% Inhibition @ 10 uM": "3.33%"}
{"compound": "CCCc1[nH]nc2c1C(c1ccc(Cl)cc1Cl)C(C#N)=C(N)O2", "note": "(stereo not drawn)", "% Inhibition @ 10 uM": "4.08%"}
{"compound": "Cc1cc(NC(=O)CN2CCCCC2C)nc2c1c(=O)oc1ccccc12", "note": "(stereo not drawn)", "% Inhibition @ 10 uM": "-4.76%"}
{"compound": "O=c1cc2nc(-c3ccco3)nc(SCc3ccccc3)n2[nH]1", "% Inhibition @ 10 uM": "-4.36%"}
{"compound": "CCOC(=O)c1cc2c(C)n(CC)c(C)c2ccc1=O", "% Inhibition @ 10 uM": "-0.267%"}
{"compound": "Cc1cc(C)c(C#N)c(SCCC(=O)Nc2ccc(F)cc2)n1", "% Inhibition @ 10 uM": "2.01%"}
{"compound": "COc1ccc2nc(NC(=O)CN(C)S(=O)(=O)c3cccs3)sc2c1", "% Inhibition @ 10 uM": "1.09%"}
{"compound": "CCOc1cc(CN2CCN(c3cccc(Cl)c3)CC2)ccc1OC", "% Inhibition @ 10 uM": "4.57%"}
{"compound": "COC(=O)c1cc2oc(C)cc2n1Cc1ccc(F)cc1Cl", "% Inhibition @ 10 uM": "-6.07%"}
{"compound": "CCOc1nc(NC(=O)NS(=O)(=O)c2ccccc2C(=O)OC)nc(-c2ccccc2)n1", "% Inhibition @ 10 uM": "-2.5%"}
{"compound": "COc1ccc(NS(=O)(=O)c2cccc(S(=O)(=O)c3ccc(Cl)c(Cl)c3)c2)cc1", "% Inhibition @ 10 uM": "-3.78%"}
{"compound": "CCc1nn(CCCC(=O)NCCCN2C(C)CCCC2C)c(=O)c2cc3occc3n12", "note": "(stereo not drawn)", "% Inhibition @ 10 uM": "-0.281%"}
{"compound": "O=S(=O)(c1ccc(Cl)cc1)N1CCc2ccccc2C1", "% Inhibition @ 10 uM": "1.35%"}
{"compound": "Cc1ccc(NC(=O)c2ccc(Cl)cc2)cc1C", "% Inhibition @ 10 uM": "-0.274%"}
{"compound": "CCN(CC)CC1OCc2ccccc2CO1", "% Inhibition @ 10 uM": "-5.33%"}
{"compound": "Cc1cccc(Cn2c(=O)sc3ccccc32)c1", "% Inhibition @ 10 uM": "1.74%"}
{"compound": "Oc1cc(Cc2ccccc2)cnc1CN1CCCCC1", "% Inhibition @ 10 uM": "2.38% and 2.94%"}
{"compound": "CCn1cc(CN(C)S(=O)(=O)c2ccc3ccccc3c2)cn1", "% Inhibition @ 10 uM": "-1.43%"}
{"compound": "CCOCCCNC1CCC(C)CC1", "note": "(stereo not drawn)", "% Inhibition @ 10 uM": "-1.81%"}
{"compound": "COc1ccccc1/N=C/C=C(\\O)c1ccc(OC)c(OC)c1", "% Inhibition @ 10 uM": "1.35%"}
{"compound": "CCC(NC(=O)c1cccc(Cl)c1)c1ccc(OC)c(OC)c1", "note": "(stereo not drawn)", "% Inhibition @ 10 uM": "-5.14%"}
{"compound": "CCC(N)C(=O)c1c(C)cc(C)cc1C", "note": "(stereo not drawn)", "% Inhibition @ 10 uM": "-1.05%"}
